From publication PMC4336329 (PLoS ONE, 2015)
The whole screen tested about 310,000 compounds, of which about 14,000 (4.5%) showed an effect of 50% or more. The effect is printed as a negative number. Some of the results follow.

target: human ether-à-go-go-related gene (hERG) potassium channel (human, UniProt Q12809); assay: primary screen, population patch clamp on CHO cells stably expressing hERG
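Note: peak tail current of the secondary pulse compared with the same well before compound.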

Sequence of human ether-à-go-go-related gene (hERG) potassium channel (Q12809 whole entry, looked up): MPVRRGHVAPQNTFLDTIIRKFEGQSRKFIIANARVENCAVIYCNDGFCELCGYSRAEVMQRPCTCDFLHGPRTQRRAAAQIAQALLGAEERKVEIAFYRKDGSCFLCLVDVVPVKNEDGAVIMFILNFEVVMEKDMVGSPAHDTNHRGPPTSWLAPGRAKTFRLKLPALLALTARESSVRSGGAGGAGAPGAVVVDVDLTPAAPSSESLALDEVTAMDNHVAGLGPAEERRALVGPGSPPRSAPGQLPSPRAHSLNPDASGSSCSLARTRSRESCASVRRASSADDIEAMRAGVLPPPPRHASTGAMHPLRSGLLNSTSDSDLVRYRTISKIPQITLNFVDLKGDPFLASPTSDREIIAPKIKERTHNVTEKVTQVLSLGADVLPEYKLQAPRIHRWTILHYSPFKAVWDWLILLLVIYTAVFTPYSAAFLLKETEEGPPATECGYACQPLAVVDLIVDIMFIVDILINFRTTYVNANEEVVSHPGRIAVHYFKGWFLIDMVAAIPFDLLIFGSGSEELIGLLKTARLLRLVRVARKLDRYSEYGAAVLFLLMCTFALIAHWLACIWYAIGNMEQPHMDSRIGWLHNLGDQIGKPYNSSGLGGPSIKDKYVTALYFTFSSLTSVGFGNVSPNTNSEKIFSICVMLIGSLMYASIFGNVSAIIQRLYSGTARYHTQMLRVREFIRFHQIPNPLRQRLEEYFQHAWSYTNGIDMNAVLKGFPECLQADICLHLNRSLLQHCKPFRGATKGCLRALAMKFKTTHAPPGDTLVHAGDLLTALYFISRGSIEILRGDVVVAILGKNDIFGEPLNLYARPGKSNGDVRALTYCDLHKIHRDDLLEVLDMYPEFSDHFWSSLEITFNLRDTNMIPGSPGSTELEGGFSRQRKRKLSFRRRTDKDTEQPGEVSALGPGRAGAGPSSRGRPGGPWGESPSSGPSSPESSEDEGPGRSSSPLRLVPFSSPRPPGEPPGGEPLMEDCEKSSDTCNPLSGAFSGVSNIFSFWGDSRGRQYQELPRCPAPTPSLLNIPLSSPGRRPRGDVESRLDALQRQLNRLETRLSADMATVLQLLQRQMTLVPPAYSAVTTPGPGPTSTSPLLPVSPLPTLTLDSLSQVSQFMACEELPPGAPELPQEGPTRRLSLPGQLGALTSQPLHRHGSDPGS

SMILES | hERG current change (%, negative = inhibition) at 10uM [%]
CC(=O)c1cc(-c2ccccc2)n(CC(=O)Nc2cc(C)cc(C)c2)c1C | 36.8
CC(=O)Nc1ccc(OS(=O)(=O)c2c(C)cc(C)cc2C)cc1 | -6.62
COc1ccc(/C=N/NC(=O)CSc2nnc(CCCc3ccc(OC)c(C)c3)o2)cc1 | 9.25
O=c1[nH]c(CSc2nnc(Nc3ccccc3)s2)nc2ccccc12 | 3.98
O=C(O)COc1ccc2oc3c(c2c1)CCCC3 | 5.66
N#Cc1c(NC(=O)C2CC(c3ccccc3Cl)=NO2)sc2c1CCC2 (stereo not shown) | 20.1
CN(CC(=O)Nc1cccc(F)c1)C(=O)c1ccc(C2SCCS2)cc1 | 9.92
O=C(NC1CCCCCC1)c1cc(-c2ccccn2)nc2ccccc12 | -14.2
CC1SCC(=O)N(CC(=O)Nc2ccc3c(c2)OCO3)C1=O (stereo not shown) | 12.4
CC1CC(=O)N(CC(=O)Nc2ccc3c(c2)OCO3)c2ccccc2S1 (stereo not shown) | -21.7
O=C(Nc1cccc(F)c1)N1CCCC(CNS(=O)(=O)Cc2ccccc2)C1 (stereo not shown) | -23.9
COc1ccc(C(=O)NCC(=O)OCC(=O)NCCC2=CCCCC2)cc1 | -12.7
COc1cc(OC)c(OC)cc1/C=N/NC(=S)NCC1CCCO1 (stereo not shown) | 3.77
Cc1noc(C)c1S(=O)(=O)Nc1ccccc1OC(F)(F)F | -15.6
COc1cccc(CSCC(=O)NCCc2ccccc2)c1OC | 6.55
COc1ccccc1COC(=O)Nc1c(C)nn(C)c1Cl | 1.05
O=C(Nc1ccc([N+](=O)[O-])cc1)C1C(c2ccccc2)=C1c1ccccc1 | -14.8
Cc1cnc(NC(=O)CCNC(=O)c2ccc([N+](=O)[O-])cc2)s1 | 12.8
CCOC(=O)N1CCN(C(=O)CSc2ccc(-c3cccnc3)nn2)CC1 | 16.1
CC(=O)Nc1cccc(NC(=O)CCc2ccccc2)c1 | 9.06
Cc1ccc(CCNC(=O)C2CCCN(S(C)(=O)=O)C2)cc1 (stereo not shown) | 9.65
CC(=O)Nc1ccc(NC(=O)/C=C/c2ccc(Cl)cc2)cc1 | 7.21

SMILES | hERG current change (%, negative = inhibition) at 10uM [%]
Cc1ccc(-n2c(O)c(C=NCCCn3ccnc3)c(=O)[nH]c2=O)cc1 | 19.6
Cc1ccsc1C(=O)OC1CCOC1=O (stereo not shown) | 10.9
Cc1nc(NC(=O)c2cc3ccccc3o2)ccc1Br | 7.03
COc1ccc(/C=N/NC(=O)c2cccnc2)cc1Cn1nc([N+](=O)[O-])c(Br)c1C | -12.9
CCOC(=O)Cc1[nH]nc2c1C(Cc1ccccc1)C(C#N)=C(N)O2 (stereo not shown) | -0.308
COc1cccc(C(C(=O)NC(C)(C)C)N(CCC(C)C)C(=O)CCC(=O)Nc2cc(C)on2)c1OC (stereo not shown) | -13.3
CCOC(=O)c1ccc(Nc2cc(C)nc(-c3ccccc3)n2)cc1 | 5.74
COc1cc(C(=O)Nc2ccc(C)cn2)ccc1OCC(=O)N1CCOCC1 | -25.4
Cc1ccc(S(=O)(=O)CCC(=O)NCc2ccccc2Cl)cc1 | -0.876
Cc1ccc(CC(=O)Nc2cccnc2)cc1 | 5.87
CCN(CC)S(=O)(=O)c1ccc(NC(=O)c2nc3nc(C)cc(C)n3n2)cc1 | -1.21
Cc1ccc2nc(NC(=O)C3=NN(c4ccccc4)C(=O)CC3)sc2c1 | 4.71
CCN(CC)c1ccc(S(=O)(=O)N2CCCCC2)cc1NC(=O)CN1C(=O)NC2(CCCC2)C1=O | -16.7
CCCCc1nc2ccccc2c(=O)n1-c1ccc(O)cc1 | 1.86
COc1cc(Cl)ccc1OCc1cc(C(=O)N2CCN(C)CC2)no1 | 0.0146
Cc1cccc(C)c1NC(=S)N(CCN(C)C)C(C)c1ccccn1 (stereo not shown) | -4.36
Cc1ccc(C)c(OCC(=O)NNC(=O)CSC(=S)N2CCCC2)c1 | 6.05
CC#CCN1c2ccccc2[C@]23C[C@@H](C(=O)OC)N(C(=O)NC4CCCCC4)C2=NC(C(=O)OC)=C(C(=O)OC)[C@H]13 | 6.01
CCCOc1ccc(-c2nc(C#N)c(N3CCC(C(N)=O)CC3)o2)cc1 | -4.61
COc1ccc(Br)cc1C(=O)Nc1ccc(N2CCN(S(C)(=O)=O)CC2)cc1 | 15.2
Cc1ccnc(NC(=O)CNC(=O)COc2ccccc2)c1 | 1.18
